# Reference: the supplement of paper PMC7125110
# Variants at the background level are over-represented here.
# B1: glmS ribozyme (parent)
# chain: AUAAAAGCGCCAGAACUACAGAAAUGUAGUUGACGAGGAGGAGGUUUAUCGAAUUUUCGGCGGAUGCCUCCAAA
# Assays:
# Details in all cases: with glucosamine-6-phosphate
# [1] = variants of: B1; experiment: self-cleavage kobs at 40 uM GlcN6P; higher = faster cleavage; RNA array
# How it was run: (§1)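 kobs was derived by fitting per-tile medians to one- or two-exponential decays after normalising signals to baseline and to non-cleaving reference variants. Those signals came from barcoded ribozyme variants transcribed in situ by E. coli RNA polymerase on sequenced MiSeq chips, followed through a hybridised Cy3 probe at 37 °C and imaged over ~14 h. Glucosamine-6-phosphate (40 μM to 10 mM) in HEPES/KCl/Mg(OAc)2 buffer was flowed in. Weighted Michaelis–Menten fits across concentrations then gave kcat and KM.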
# [2] = variants of: B1; experiment: self-cleavage kobs at 640 uM GlcN6P; higher = faster cleavage; RNA array
# How it was run: as §1
# [3] = variants of: B1; experiment: self-cleavage kobs at 160 uM GlcN6P; higher = faster cleavage; RNA array
# How it was run: as §1
# [4] = variants of: B1; experiment: self-cleavage kobs at 2500 uM GlcN6P; higher = faster cleavage; RNA array
# How it was run: as §1
# [5] = variants of: B1; experiment: self-cleavage kobs at 10000 uM GlcN6P; higher = faster cleavage; RNA array
# How it was run: as §1
variant,measurement,setting,value
AUAAAAGCGCCAGAACUACAGAAAUGUAGUUGACGAGGAGGAAGUUUAUCGAAUUUACGGCGGAUGCCUCCAAA,self-cleavage kobs at 40 uM GlcN6P,[1],< 1e-05 s⁻¹
AUAAAAGCGCCAGAACUACAGAAAUGUAGUUGACGAGGAGGACGUUUAUCGAAUUUCCGGCGGAUGCCUCCAAA,self-cleavage kobs at 40 uM GlcN6P,[1],< 1e-05 s⁻¹
same,self-cleavage kobs at 640 uM GlcN6P,[2],< 1e-05 s⁻¹
same,self-cleavage kobs at 160 uM GlcN6P,[3],< 1e-05 s⁻¹
same,self-cleavage kobs at 2500 uM GlcN6P,[4],< 1e-05 s⁻¹
same,self-cleavage kobs at 10000 uM GlcN6P,[5],< 1e-05 s⁻¹
AUAAAAGCGCCAGAACUACAGAAAUGUAGUUGACGAGGAGGAGGAUUAUCUAAUUUUCGGCGGAUGCCUCCAAA,self-cleavage kobs at 40 uM GlcN6P,[1],< 1e-05 s⁻¹
same,self-cleavage kobs at 160 uM GlcN6P,[3],< 1e-05 s⁻¹
same,self-cleavage kobs at 10000 uM GlcN6P,[5],< 1e-05 s⁻¹
AUAAAAGCGCCAGAACUACAGAAAUGUAGUUGACGAGGAGGAGGAUUAUCAAAUUUUCGGCGGAUGCCUCCAAA,self-cleavage kobs at 40 uM GlcN6P,[1],< 1e-05 s⁻¹
same,self-cleavage kobs at 160 uM GlcN6P,[3],< 1e-05 s⁻¹
AUAAAAGCGCCAGAACUACAGAAAUGUAGUUGACGAGGAGGAGUUUUAUCGAAUUUUCGGCGGAUCCCUCCAAA,self-cleavage kobs at 40 uM GlcN6P,[1],< 1e-05 s⁻¹
same,self-cleavage kobs at 160 uM GlcN6P,[3],< 1e-05 s⁻¹
AUAAAAGCGCCAGAACUACAGAAAUGUAGUUGACGAGGAGGAUGUUUAUCGAAUUUUCGGAGGGUGCUUCCAAA,self-cleavage kobs at 40 uM GlcN6P,[1],< 1e-05 s⁻¹
AUAAAAGCGCCAGAACUACAGAAAUGUAGUUGACGAGGAGGAGCUUUAUCGAAUUUUCGCCGGAUGCCUCCAAA,self-cleavage kobs at 40 uM GlcN6P,[1],< 1e-05 s⁻¹
same,self-cleavage kobs at 640 uM GlcN6P,[2],< 1e-05 s⁻¹
same,self-cleavage kobs at 160 uM GlcN6P,[3],< 1e-05 s⁻¹
AUAAAAGCGCCAGAACUACAGAAAUGUAGUUGACGAGGAGGAGCUUUAUCGCAUUUUCGGCGGAUGCCUCCAAA,self-cleavage kobs at 40 uM GlcN6P,[1],< 1e-05 s⁻¹
same,self-cleavage kobs at 640 uM GlcN6P,[2],< 1e-05 s⁻¹
same,self-cleavage kobs at 160 uM GlcN6P,[3],< 1e-05 s⁻¹
same,self-cleavage kobs at 2500 uM GlcN6P,[4],< 1e-05 s⁻¹
same,self-cleavage kobs at 10000 uM GlcN6P,[5],< 1e-05 s⁻¹
AUAAAAGCGCCAGAACUACAGAAAUGUAGUUGACGAGGAGGAUGUUUAUCGAAUCUUCGGCGGAUGCCUCCAAA,self-cleavage kobs at 40 uM GlcN6P,[1],< 1e-05 s⁻¹
AUAAAAGCGCCAGAACUACAGAAAUGUAGUUGACGAGGAGGAUGUUUAUCGCAUUUUCGGAGGAUGCCUCUAAA,self-cleavage kobs at 40 uM GlcN6P,[1],< 1e-05 s⁻¹
same,self-cleavage kobs at 640 uM GlcN6P,[2],< 1e-05 s⁻¹
same,self-cleavage kobs at 10000 uM GlcN6P,[5],< 1e-05 s⁻¹
AUAAAAGCGCCAGAACUACAGAAAUGUAGUUGACGAGGAGGAGGAUUAUCGAAUUUUCGGAGGAUGCCUCCAAA,self-cleavage kobs at 40 uM GlcN6P,[1],< 1e-05 s⁻¹
same,self-cleavage kobs at 640 uM GlcN6P,[2],< 1e-05 s⁻¹
same,self-cleavage kobs at 2500 uM GlcN6P,[4],< 1e-05 s⁻¹
AUAAAAGCGCCAGAACUACAGAAAUGUAGUUGACGAGGAGGACGUCUAUCGAAUUUUCGGCGGAUGCCUCCAAA,self-cleavage kobs at 40 uM GlcN6P,[1],< 1e-05 s⁻¹
same,self-cleavage kobs at 640 uM GlcN6P,[2],< 1e-05 s⁻¹
same,self-cleavage kobs at 160 uM GlcN6P,[3],< 1e-05 s⁻¹
same,self-cleavage kobs at 2500 uM GlcN6P,[4],< 1e-05 s⁻¹
AUAAAAGCGCCAGAACUACAGAAAUGUAGUUGACGAGGAGGAUGUUAAUCGAAUUUUCGGCGGAUGCCUCCAAA,self-cleavage kobs at 40 uM GlcN6P,[1],< 1e-05 s⁻¹
AUAAAAGCGCCAGAACUACAGAAAUGUAGUUGACGAGGAGGAGUUUUAUCGAAUUUUCGGUGGAUGCCUCCAAA,self-cleavage kobs at 40 uM GlcN6P,[1],< 1e-05 s⁻¹
same,self-cleavage kobs at 640 uM GlcN6P,[2],< 1e-05 s⁻¹
same,self-cleavage kobs at 160 uM GlcN6P,[3],< 1e-05 s⁻¹
same,self-cleavage kobs at 10000 uM GlcN6P,[5],< 1e-05 s⁻¹
